Reference: the supplement of paper PMC4967469

Assays:
Assay in all cases: Viability of human cancer cell lines after 72 h of drug (GDSC screen)
[1] = compound: Cn1cnc2c(F)c(Nc3ccc(Br)cc3Cl)c(C(=O)NOCCO)cc21 [AZD6244]; conditions: top dose 4 µM; screen: GDSC drug entry 1498; top dose inferred
Method: (§1)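 Human cancer cell lines in 384-well plates, medium with 10% serum, drug for 72 h over a 256-fold dose range (nine 2-fold or five 4-fold steps up to the top dose). Adherent lines were fixed and stained with the nucleic acid dye Syto60, suspension lines read with resazurin; signal relative to control wells, capped at 0 and 100%. One two-parameter sigmoid per drug and line, fitted in a mixed model over all curves with the slope shared within a line.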

[2] = compound: N#CC(c1ccnc(NCCc2cccnc2)n1)c1nc2ccccc2s1 [AS601245]; conditions: top dose 8 µM; top dose inferred
Method: as §1

[3] = compound: NC(=O)C1CCCc2c1[nH]c1ccc(Cl)cc21 [EX-527]; conditions: top dose 20 µM
Method: as §1

[4] = compound: Nc1ccc(C(=O)Nc2cccc(-c3nc(N4CCOCC4)c4oc5ncccc5c4n3)c2)cn1 [YM201636]; conditions: top dose 5.12 µM; top dose inferred
Method: as §1

Cell Line | AUC [1] | pIC50 [1] | AUC [2] | pIC50 [2] | AUC [3] | pIC50 [3] | AUC [4] | pIC50 [4]
COR-L23 (large cell lung carcinoma, adherent) | 0.915 | < 5.40 | 0.839 | 5.28 | 0.977 | < 4.70 | 0.909 | < 5.29
COR-L105 (lung adenocarcinoma, adherent) | 0.788 | 5.66 | 0.694 | 5.70 | 0.982 | < 4.70 | 0.796 | 5.52
CP50-MEL-B (melanoma, adherent) | 0.295 | 7.18 | 0.845 | 5.25 | 0.988 | < 4.70 | 0.829 | 5.50
CS1 (bone, adherent) | 0.9 | < 5.40 | 0.823 | 5.26 | 0.974 | < 4.70 | 0.848 | 5.35
Ca9-22 (head and neck, adherent) | 0.796 | 5.77 | 0.857 | 5.24 | 0.988 | < 4.70 | 0.921 | < 5.29
Ca-Ski (cervix, adherent) | 0.87 | < 5.40 | 0.906 | < 5.10 | 0.98 | < 4.70 | 0.762 | 5.69
CaR-1 (large intestine, adherent) | 0.911 | < 5.40 | 0.913 | < 5.10 | 0.97 | < 4.70 | 0.941 | < 5.29
Calu-6 (lung adenocarcinoma, adherent) | 0.719 | 5.94 | 0.798 | 5.35 | 0.967 | < 4.70 | 0.928 | < 5.29
Capan-2 (pancreas, adherent) | 0.638 | 6.18 | 0.819 | 5.23 | 0.985 | < 4.70 | 0.97 | < 5.29
ChaGo-K-1 (non-small cell lung carcinoma, adherent) | 0.972 | < 5.40 | 0.805 | 5.32 | 0.985 | < 4.70 | 0.888 | < 5.29
DAN-G (pancreas, adherent) | 0.879 | 5.49 | 0.992 | < 5.10 | 0.985 | < 4.70 | 0.954 | < 5.29
DBTRG-05MG (glioma, adherent) | 0.763 | 5.77 | 0.886 | < 5.10 | 0.973 | < 4.70 | 0.945 | < 5.29
DK-MG (glioma, adherent) | 0.766 | 5.65 | 0.965 | < 5.10 | 0.971 | < 4.70 | 0.884 | < 5.29
DMS-53 (small cell lung carcinoma, adherent) | 0.987 | < 5.40 | 0.909 | < 5.10 | 0.988 | < 4.70 | 0.988 | < 5.29
DMS-273 (small cell lung carcinoma, adherent) | 0.983 | < 5.40 | 0.672 | 5.81 | 0.983 | < 4.70 | 0.761 | 5.72
DOK (head and neck, adherent) | 0.331 | 7.18 | 0.876 | < 5.10 | 0.976 | < 4.70 | 0.975 | < 5.29
DU-145 (prostate, adherent) | 0.737 | 5.89 | 0.823 | 5.26 | 0.984 | < 4.70 | 0.953 | < 5.29
Daoy (medulloblastoma, adherent) | 0.895 | < 5.40 | 0.806 | 5.44 | 0.985 | < 4.70 | 0.947 | < 5.29
Detroit562 (head and neck, adherent) | 0.915 | < 5.40 | 0.817 | 5.37 | 0.988 | < 4.70 | 0.957 | < 5.29
DoTc2-4510 (cervix, adherent) | 0.937 | < 5.40 | 0.729 | 5.67 | 0.988 | < 4.70 | 0.945 | < 5.29
EBC-1 (lung squamous cell carcinoma, adherent) | 0.532 | 6.51 | 0.829 | 5.23 | 0.981 | < 4.70 | 0.913 | < 5.29
ECC10 (stomach, suspension) | 0.908 | < 5.40 | 0.914 | < 5.10 | 0.985 | < 4.70 | 0.966 | < 5.29
EFM-19 (breast, adherent) | 0.96 | < 5.40 | 0.83 | < 5.10 | 0.977 | < 4.70 | 0.764 | 5.54
EFM-192A (breast, adherent) | 0.982 | < 5.40 | 0.525 | 6.23 | 0.986 | < 4.70 | 0.81 | 5.51

Cell Line | AUC [1] | pIC50 [1] | AUC [2] | pIC50 [2] | AUC [3] | pIC50 [3] | AUC [4] | pIC50 [4]
EFO-21 (ovary, adherent) | 0.905 | < 5.40 | 0.79 | 5.27 | 0.97 | < 4.70 | 0.884 | < 5.29
EFO-27 (ovary, adherent) | 0.873 | < 5.40 | 0.824 | 5.19 | 0.98 | < 4.70 | 0.943 | < 5.29
EGI-1 (biliary tract, adherent) | 0.637 | 6.17 | 0.935 | < 5.10 | 0.976 | < 4.70 | 0.943 | < 5.29
EN (endometrium, adherent) | 0.976 | < 5.40 | 0.905 | < 5.10 | 0.976 | < 4.70 | 0.854 | < 5.29
EPLC-272H (lung squamous cell carcinoma, adherent) | 0.853 | 5.42 | 0.869 | < 5.10 | 0.965 | < 4.70 | 0.904 | < 5.29
ESS-1 (endometrium, adherent) | 0.931 | < 5.40 | 0.842 | 5.32 | 0.99 | < 4.70 | 0.988 | < 5.29
EW-7 (Ewing sarcoma, semi-adherent) | 0.98 | < 5.40 | 0.867 | 5.24 | 0.99 | < 4.70 | 0.621 | 6.18
FTC-133 (thyroid, adherent) | 0.945 | < 5.40 | 0.961 | < 5.10 | 0.97 | < 4.70 | 0.986 | < 5.29
FU97 (stomach, adherent) | 0.826 | 5.60 | 0.847 | 5.21 | 0.982 | < 4.70 | 0.842 | 5.42
FU-OV-1 (ovary, adherent) | 0.893 | < 5.40 | 0.818 | 5.19 | 0.981 | < 4.70 | 0.857 | < 5.29
G-292 Clone A141B1 (osteosarcoma, adherent) | 0.933 | < 5.40 | 0.746 | 5.40 | 0.974 | < 4.70 | 0.931 | < 5.29
G-361 (melanoma, adherent) | 0.514 | 6.56 | 0.86 | 5.20 | 0.984 | < 4.70 | 0.928 | < 5.29
G-401 (kidney, adherent) | 0.937 | < 5.40 | 0.768 | 5.48 | 0.965 | < 4.70 | 0.909 | < 5.29
G-402 (soft tissue, adherent) | 0.908 | < 5.40 | 0.822 | 5.16 | 0.974 | < 4.70 | 0.828 | 5.33
G-MEL (melanoma, adherent) | 0.169 | 7.60 | 0.894 | < 5.10 | 0.982 | < 4.70 | 0.952 | < 5.29
GAK (melanoma, adherent) | 0.629 | 6.25 | 0.872 | 5.16 | 0.983 | < 4.70 | 0.891 | < 5.29
GAMG (glioma, adherent) | 0.92 | < 5.40 | 0.822 | 5.30 | 0.985 | < 4.70 | 0.888 | < 5.29
GCT (soft tissue, adherent) | 0.964 | < 5.40 | 0.77 | 5.55 | 0.987 | < 4.70 | 0.989 | < 5.29
GMS-10 (glioma, adherent) | 0.87 | 5.43 | 0.909 | < 5.10 | 0.978 | < 4.70 | 0.984 | < 5.29
GP5d (large intestine, adherent) | 0.819 | 5.71 | 0.827 | 5.38 | 0.991 | < 4.70 | 0.847 | 5.50
H4 (glioma, adherent) | 0.957 | < 5.40 | 0.871 | 5.13 | 0.981 | < 4.70 | 0.972 | < 5.29
H513 (mesothelioma, semi-adherent) | 0.914 | < 5.40 | 0.985 | < 5.10 | 0.986 | < 4.70 | 0.808 | 5.47
H2369 (mesothelioma, adherent) | 0.933 | < 5.40 | 0.868 | 5.11 | 0.981 | < 4.70 | 0.929 | < 5.29
H2373 (mesothelioma, adherent) | 0.894 | < 5.40 | 0.923 | < 5.10 | 0.982 | < 4.70 | 0.945 | < 5.29

pIC50: −log10 of the molar value. The IC50 comes from the fitted curve, where viability falls to half of the control; where the fit passes the top or lowest dose, that dose stands as a limit. The AUC spans the tested range (256-fold, ending at the top dose) of the same fit; values near 1 show little effect. For part of these data: A top dose marked as inferred was derived from the fitted curves, not read from the paper. For part of these data: An entry number marks a drug with two screens in the source, which often give different values.
